# Data as given in the supplement of paper PMC8728848.
# The other results are listed elsewhere or left out.
# Columns and labels:
# Assay in all cases: glycan array binding signal (z-score within array); higher = stronger binding
# Details in all cases: glycan notation: IUPAC condensed, linker removed; mutation: W10H
# Fuc(a1-2)Gal = molecular target: Fuc(a1-2)Gal
# In short: (§1)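 The binding signal is a Z-score computed within each array. Data were drawn from 3228 arrays in the Consortium for Functional Glycomics database, restricted to those with a known protein sequence. Scores were averaged over arrays of the same protein sequence at different concentrations or buffers, and over linkers, and negative values can be taken as non-binding.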
# Fuc(a1-2)Gal(b1-3)GalNAc = molecular target: Fuc(a1-2)Gal(b1-3)GalNAc
# In short: as §1
# [1] = molecular target: Fuc(a1-2)Gal(b1-3)GalNAc(a1-3)[Fuc(a1-2)]Gal(b1-4)Glc
# In short: as §1
# [2] = molecular target: Fuc(a1-2)Gal(b1-3)GalNAc(a1-3)[Fuc(a1-2)]Gal(b1-4)GlcNAc
# In short: as §1
# [3] = molecular target: Fuc(a1-2)Gal(b1-3)GalNAc(b1-3)Gal
# In short: as §1
# [4] = molecular target: Fuc(a1-2)Gal(b1-3)GalNAc(b1-3)Gal(a1-4)Gal(b1-4)Glc
# In short: as §1
# [5] = molecular target: Fuc(a1-2)Gal(b1-3)GalNAc(b1-4)[Neu5Ac(a2-3)]Gal(b1-4)Glc
# In short: as §1
# Fuc(a1-2)Gal(b1-3)GlcNAc = molecular target: Fuc(a1-2)Gal(b1-3)GlcNAc
# In short: as §1
# [6] = molecular target: Fuc(a1-2)Gal(b1-3)GlcNAc(b1-2)Man(a1-3)[Fuc(a1-2)Gal(b1-3)GlcNAc(b1-2)Man(a1-6)]Man(b1-4)GlcNAc(b1-4)GlcNAc
# In short: as §1
# [7] = molecular target: Fuc(a1-2)Gal(b1-3)GlcNAc(b1-2)Man(a1-3)[Fuc(a1-2)Gal(b1-3)GlcNAc(b1-2)Man(a1-6)]Man(b1-4)GlcNAc(b1-4)[Fuc(a1-6)]GlcNAc
# In short: as §1
# [8] = molecular target: Fuc(a1-2)Gal(b1-3)GlcNAc(b1-3)Gal(b1-4)Glc
# In short: as §1
# [9] = molecular target: Fuc(a1-2)Gal(b1-3)GlcNAc(b1-3)GalNAc
# In short: as §1
# [10] = molecular target: Fuc(a1-2)Gal(b1-3)GlcNAc(b1-3)[Fuc(a1-2)Gal(b1-3)GlcNAc(b1-6)]GalNAc
# In short: as §1
# [11] = molecular target: Fuc(a1-2)Gal(b1-3)GlcNAc(b1-3)[Gal(b1-4)GlcNAc(b1-6)]Gal(b1-4)Glc
# In short: as §1
# [12] = molecular target: Fuc(a1-2)Gal(b1-3)GlcNAc(b1-3)[Neu5Ac(a2-6)Gal(b1-4)GlcNAc(b1-6)]Gal(b1-4)Glc
# In short: as §1
# [13] = molecular target: Fuc(a1-2)Gal(b1-3)GlcNAc6S
# In short: as §1
# [14] = molecular target: Fuc(a1-2)Gal(b1-3)[Fuc(a1-4)]GlcNAc
# In short: as §1
# [15] = molecular target: Fuc(a1-2)Gal(b1-3)[Fuc(a1-4)]GlcNAc(b1-2)Man(a1-3)[Fuc(a1-2)Gal(b1-3)[Fuc(a1-4)]GlcNAc(b1-2)Man(a1-3)]Man(b1-4)GlcNAc(b1-4)GlcNAc
# In short: as §1
# [16] = molecular target: Fuc(a1-2)Gal(b1-3)[Fuc(a1-4)]GlcNAc(b1-2)Man(a1-3)[Fuc(a1-2)Gal(b1-3)[Fuc(a1-4)]GlcNAc(b1-2)Man(a1-6)]Man(b1-4)GlcNAc(b1-4)[Fuc(a1-6)]GlcNAc(b1-4)[Fuc(a1-6)]GlcNAc
# In short: as §1
# [17] = molecular target: Fuc(a1-2)Gal(b1-3)[Fuc(a1-4)]GlcNAc(b1-3)[Fuc(a1-3)[Gal(b1-4)]GlcNAc(b1-6)]Gal(b1-4)Glc
# In short: as §1
# [18] = molecular target: Fuc(a1-2)Gal(b1-3)[Fuc(a1-4)]GlcNAc(b1-3)[Gal(b1-4)GlcNAc(b1-6)]Gal(b1-4)Glc
# In short: as §1
# [19] = molecular target: Fuc(a1-2)Gal(b1-4)Fuc(a1-3)]GlcNAc(b1-2)Man(a1-3)[Fuc(a1-2)Gal(b1-4)[Fuc(a1-3)]GlcNAc(b1-2)Man(a1-6)]Man(b1-4)GlcNAc(b1-4)GlcNAc
# In short: as §1
# Fuc(a1-2)Gal(b1-4)Glc = molecular target: Fuc(a1-2)Gal(b1-4)Glc
# In short: as §1
# Fuc(a1-2)Gal(b1-4)Glc6S = molecular target: Fuc(a1-2)Gal(b1-4)Glc6S
# In short: as §1
# Fuc(a1-2)Gal(b1-4)GlcNAc = molecular target: Fuc(a1-2)Gal(b1-4)GlcNAc
# In short: as §1
# [20] = molecular target: Fuc(a1-2)Gal(b1-4)GlcNAc(b1-2)Man
# In short: as §1
# [21] = molecular target: Fuc(a1-2)Gal(b1-4)GlcNAc(b1-2)Man(a1-3)[Fuc(a1-2)Gal(b1-4)GlcNAc(b1-2)Man(a1-6)]Man(b1-4)GlcNAc(b1-4)GlcNAc
# In short: as §1
# [22] = molecular target: Fuc(a1-2)Gal(b1-4)GlcNAc(b1-2)Man(a1-3)[Fuc(a1-2)Gal(b1-4)GlcNAc(b1-2)Man(a1-6)]Man(b1-4)GlcNAc(b1-4)[Fuc(a1-6)]GlcNAc
# In short: as §1
# [23] = molecular target: Fuc(a1-2)Gal(b1-4)GlcNAc(b1-2)[Fuc(a1-2)Gal(b1-4)GlcNAc(b1-4)]Man(a1-3)[Fuc(a1-2)Gal(b1-4)GlcNAc(b1-2)Man(a1-6)]Man(b1-4)GlcNAc(b1-4)GlcNAc
# In short: as §1
# [24] = molecular target: Fuc(a1-2)Gal(b1-4)GlcNAc(b1-3)Gal(b1-4)GlcNAc
# In short: as §1
# [25] = molecular target: Fuc(a1-2)Gal(b1-4)GlcNAc(b1-3)Gal(b1-4)GlcNAc(b1-2)Man(a1-3)[Fuc(a1-2)Gal(b1-4)GlcNAc(b1-3)Gal(b1-4)GlcNAc(b1-2)Man(a1-6)]Man(b1-4)GlcNAc(b1-4)GlcNAc
# In short: as §1
# [26] = molecular target: Fuc(a1-2)Gal(b1-4)GlcNAc(b1-3)Gal(b1-4)GlcNAc(b1-3)Gal(b1-4)GlcNAc
# In short: as §1
# [27] = molecular target: Fuc(a1-2)Gal(b1-4)GlcNAc(b1-3)GalNAc
# In short: as §1
# [28] = molecular target: Fuc(a1-2)Gal(b1-4)GlcNAc(b1-3)[Fuc(a1-2)Gal(b1-4)GlcNAc(b1-6)]GalNAc
# In short: as §1
# [29] = molecular target: Fuc(a1-2)Gal(b1-4)GlcNAc(b1-3)[Fuc(a1-3)[Gal(b1-4)]GlcNAc(b1-6)]Gal(b1-4)Glc
# In short: as §1
# [30] = molecular target: Fuc(a1-2)Gal(b1-4)GlcNAc(b1-6)GalNAc
# In short: as §1
# [31] = molecular target: Fuc(a1-2)Gal(b1-4)GlcNAc6S
# In short: as §1
# [32] = molecular target: Fuc(a1-2)Gal(b1-4)[Fuc(a1-3)]GlcNAc
# In short: as §1
# [33] = molecular target: Fuc(a1-2)Gal(b1-4)[Fuc(a1-3)]GlcNAc(b1-2)Man(a1-3)[Fuc(a1-2)Gal(b1-4)[Fuc(a1-3)]GlcNAc(b1-2)Man(a1-6)]Man(b1-4)GlcNAc(b1-4)[Fuc(a1-6)]GlcNAc
# In short: as §1
# [34] = molecular target: Fuc(a1-2)Gal(b1-4)[Fuc(a1-3)]GlcNAc(b1-2)[Fuc(a1-2)Gal(b1-4)[Fuc(a1-3)]GlcNAc(b1-4)]Man(a1-3)[Fuc(a1-2)Gal(b1-4)[Fuc(a1-3)]GlcNAc(b1-2)Man(a1-6)]Man(b1-4)GlcNAc(b1-4)GlcNAc
# In short: as §1
# [35] = molecular target: Fuc(a1-2)Gal(b1-4)[Fuc(a1-3)]GlcNAc(b1-3)Gal(b1-4)[Fuc(a1-3)]GlcNAc
# In short: as §1
# [36] = molecular target: Fuc(a1-2)Gal(b1-4)[Fuc(a1-3)]GlcNAc(b1-3)Gal(b1-4)[Fuc(a1-3)]GlcNAc(b1-3)Gal(b1-4)[Fuc(a1-3)]GlcNAc
# In short: as §1
# [37] = molecular target: Fuc(a1-2)Gal(b1-4)[Fuc(a1-3)]GlcNAc(b1-3)GalNAc
# In short: as §1
# [38] = molecular target: Fuc(a1-2)Gal(b1-4)[Fuc(a1-3)]GlcNAc(b1-3)[Neu5Ac(a2-6)Gal(b1-4)GlcNAc(b1-6)]Gal(b1-4)Glc
# In short: as §1
# [39] = molecular target: Fuc(a1-2)Gal3S(b1-4)GlcNAc
# In short: as §1
binder,measurement,setting,value
Banana lectin (Musa acuminata) (protein) MNGAIKVGAHGGNGGSAFDMGPAYRIISVKIFSGDVVDGVDVTFTYYGKTETRHYGGSGGTPHEIVLQEGEYLVGMAGEVANYHGAVVLGKLGFSTNKKAYGPFGNTGGTPFSLPIAAGKISGFFGRGGKFLDAIGVYLEPLEHHHHHH,glycan array binding signal (z-score),Fuc(a1-2)Gal,-0.166
same,glycan array binding signal (z-score),Fuc(a1-2)Gal(b1-3)GalNAc,-0.184
same,glycan array binding signal (z-score),[1],-0.171
same,glycan array binding signal (z-score),[2],-0.179
same,glycan array binding signal (z-score),[3],-0.142
same,glycan array binding signal (z-score),[4],-0.164
same,glycan array binding signal (z-score),[5],-0.17
same,glycan array binding signal (z-score),Fuc(a1-2)Gal(b1-3)GlcNAc,-0.138
same,glycan array binding signal (z-score),[6],0.104
same,glycan array binding signal (z-score),[7],-0.086
same,glycan array binding signal (z-score),[8],-0.172
same,glycan array binding signal (z-score),[9],-0.181
same,glycan array binding signal (z-score),[10],-0.199
same,glycan array binding signal (z-score),[11],-0.184
same,glycan array binding signal (z-score),[12],-0.165
same,glycan array binding signal (z-score),[13],-0.135
same,glycan array binding signal (z-score),[14],-0.188
same,glycan array binding signal (z-score),[15],-0.155
same,glycan array binding signal (z-score),[16],-0.096
same,glycan array binding signal (z-score),[17],-0.176
same,glycan array binding signal (z-score),[18],-0.177
same,glycan array binding signal (z-score),[19],-0.064
same,glycan array binding signal (z-score),Fuc(a1-2)Gal(b1-4)Glc,-0.185
same,glycan array binding signal (z-score),Fuc(a1-2)Gal(b1-4)Glc6S,-0.192
same,glycan array binding signal (z-score),Fuc(a1-2)Gal(b1-4)GlcNAc,-0.172
same,glycan array binding signal (z-score),[20],-0.167
same,glycan array binding signal (z-score),[21],0.05
same,glycan array binding signal (z-score),[22],-0.003
same,glycan array binding signal (z-score),[23],-0.097
same,glycan array binding signal (z-score),[24],-0.151
same,glycan array binding signal (z-score),[25],-0.14
same,glycan array binding signal (z-score),[26],-0.131
same,glycan array binding signal (z-score),[27],-0.182
same,glycan array binding signal (z-score),[28],-0.164
same,glycan array binding signal (z-score),[29],-0.128
same,glycan array binding signal (z-score),[30],-0.158
same,glycan array binding signal (z-score),[31],-0.179
same,glycan array binding signal (z-score),[32],-0.179
same,glycan array binding signal (z-score),[33],-0.129
same,glycan array binding signal (z-score),[34],-0.112
same,glycan array binding signal (z-score),[35],-0.129
same,glycan array binding signal (z-score),[36],-0.169
same,glycan array binding signal (z-score),[37],-0.188
same,glycan array binding signal (z-score),[38],-0.189
same,glycan array binding signal (z-score),[39],-0.187
